Source: PubChem BioAssay (NCATS)
The shares of active, inactive and inconclusive entries below differ from those in the screen. For part of these data: Potencies of inconclusive entries are doubtful fits and often do not repeat. Active and inactive are the calls of the source. Unless noted, calls follow the shape of the dose curve; as a rule, active = well fitted curve in the direction sought with a large enough effect; inconclusive = small, poorly fitted or top-dose-only effect, or another doubt; inactive = no such curve, though single readings can be large; an effect the other way counts as inactive or inconclusive.

Legend:
[1] = molecular target: Calcium and integrin-binding protein 1 (Homo sapiens) (UniProt Q99828); assay: Primary qHTS for Identification of Calcium Integrin Binding Protein 1 (CIB1) Competitor (AID 1508620);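 also: GST tagged CIB1 binding a fluorescein labelled alphaIIb integrin peptide tracer; top concentration of the series differs between compounds; % is scaled to controls: 0 for no effect and ±100 for the full control effect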
UniProt Q99828, sequence (Q99828 whole entry, looked up): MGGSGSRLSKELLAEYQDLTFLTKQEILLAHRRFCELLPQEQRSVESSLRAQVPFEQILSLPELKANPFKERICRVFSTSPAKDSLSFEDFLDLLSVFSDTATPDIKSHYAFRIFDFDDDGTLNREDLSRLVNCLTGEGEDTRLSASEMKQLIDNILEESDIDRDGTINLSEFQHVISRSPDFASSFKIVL
How it was run: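 CIB1-GST (1 uM final) and compound incubated 15 min at room temperature before adding FITC-alphaIIb peptide tracer (100 nM final). Competition for binding read by fluorescence polarization (ex 480, em 540) after another 15 min at room temperature.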

[2] = Primary qHTS for inhibitors of nuclear receptor binding SET domain protein 2 (NSD2) in an RCH-ACV wild type WT cells (2C) (AID 1645877); details: activity change, negative = cell killing: at 44.9 µM (top of the series) unless noted; also: nearly all actives have a fitted effect of over 70% in size; also: potency is read from the fitted curve at half-maximal effect
CAOV3 = assay: Primary qHTS to identify gynecologic anti-cancer compounds using libraries of approved drugs and bioactive compounds (AID 1345084); details: Gynecologic cancer cell panel viability, ATPlite luminescence, 48 h; series mostly up to 57.5 µM; also: nearly all actives have a fitted effect of over 55% in size; also: potency is read from the fitted curve at half-maximal effect; as to activity change, negative = cytotoxicity: % is scaled to controls: 0 for no effect and ±100 for the full control effect
How it was run: (§1)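 Cells, 1,000 per well, were allowed to settle for 16 h at 37 C before compound addition. Five concentrations were tested for 48 h, and viability was read by ATPlite luminescence after 15 min at room temperature.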

Hek293T = assay: as above; details: Gynecologic cancer cell panel viability, ATPlite luminescence, 48 h, control line for the selectivity index; series mostly up to 57.5 µM
How it was run: as §1

[3] = P-glycoprotein substrates identified in KB-3-1 adenocarcinoma cell line, qHTS therapeutic library screen (AID 1346986); also: nearly all actives have a fitted effect of over 60% in size
How it was run: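 Counter-screen: cherry-picked hits retested in the KB pair and in HEK-293 pcDNA/MDR-19 cells ± tariquidar. Primary screen used 72 h CellTiter-Glo viability in KB-3-1 and KB-8-5-11.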

OV90 = assay: Primary qHTS to identify gynecologic anti-cancer compounds using libraries of approved drugs and bioactive compounds (AID 1345084); details: Gynecologic cancer cell panel viability, ATPlite luminescence, 48 h; series mostly up to 57.5 µM; also: nearly all actives have a fitted effect of over 55% in size; also: potency is read from the fitted curve at half-maximal effect; as to activity change, negative = cytotoxicity: % is scaled to controls: 0 for no effect and ±100 for the full control effect
How it was run: as §1

[4] = P-glycoprotein substrates identified in KB-8-5-11 adenocarcinoma cell line, qHTS therapeutic library screen (AID 1346987); details: activity change, negative = cytotoxicity: at 44.5 µM (top of the series); also: % is scaled to controls: 0 for no effect and ±100 for the full control effect; nearly all actives have a fitted effect of over 65% in size
How it was run: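 KB-8-5-11: colchicine-selected sub-line of KB-3-1 over-expressing P-gp; assay medium lacked colchicine. 72 h drug exposure at 37 degree C, CellTiter-Glo.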

[5] = molecular target: Cytochrome P450 2D6 (Homo sapiens) (UniProt P10635); assay: Cytochrome P450 family 2 subfamily D member 6 (CYP2D6) small molecule antagonists: luciferase biochemical (cell-free) qHTS assay (AID 1645840; active = well fitted curve in the direction sought with a large enough effect in the repeat runs; inconclusive = weak or mixed curves; inactive = no such curve, though single readings can be large; an effect the other way counts as inactive or inconclusive)
UniProt P10635, sequence (P10635 whole entry, looked up): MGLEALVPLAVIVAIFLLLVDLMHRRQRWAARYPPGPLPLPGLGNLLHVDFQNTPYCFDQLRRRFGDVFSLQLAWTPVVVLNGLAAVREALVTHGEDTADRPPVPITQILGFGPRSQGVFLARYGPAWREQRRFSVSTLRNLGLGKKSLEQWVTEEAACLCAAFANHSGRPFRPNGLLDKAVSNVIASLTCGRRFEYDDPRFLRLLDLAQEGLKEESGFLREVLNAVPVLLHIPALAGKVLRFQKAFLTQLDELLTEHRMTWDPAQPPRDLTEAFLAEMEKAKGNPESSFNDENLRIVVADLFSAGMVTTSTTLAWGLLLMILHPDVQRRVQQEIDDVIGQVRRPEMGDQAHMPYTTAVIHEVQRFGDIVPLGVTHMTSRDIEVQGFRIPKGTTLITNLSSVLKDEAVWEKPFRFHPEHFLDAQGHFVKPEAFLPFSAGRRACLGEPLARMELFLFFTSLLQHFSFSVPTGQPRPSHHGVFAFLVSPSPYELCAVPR
How it was run: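 P450-Glo luminescent screen: recombinant CYP2D6 enzyme–proluciferin substrate mix preincubated with compound 10 min at room temperature, then NADPH regeneration added for 1 h at room temperature. Detection reagent added for 20 min; luciferin light read as relative luminescence units.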

[6] = molecular target: Cytochrome P450 3A4 (Homo sapiens) (UniProt P08684); assay: Cytochrome P450 family 3 subfamily A member 4 (CYP3A4) small molecule antagonists: luciferase qHTS assay (AID 1645841; active = well fitted curve in the direction sought with a large enough effect in the repeat runs; inconclusive = weak or mixed curves; inactive = no such curve, though single readings can be large; an effect the other way counts as inactive or inconclusive; also: potency is read from the fitted curve at half-maximal effect; nearly all actives have a fitted effect of over 45% in size)
UniProt P08684, sequence (P08684 whole entry, looked up): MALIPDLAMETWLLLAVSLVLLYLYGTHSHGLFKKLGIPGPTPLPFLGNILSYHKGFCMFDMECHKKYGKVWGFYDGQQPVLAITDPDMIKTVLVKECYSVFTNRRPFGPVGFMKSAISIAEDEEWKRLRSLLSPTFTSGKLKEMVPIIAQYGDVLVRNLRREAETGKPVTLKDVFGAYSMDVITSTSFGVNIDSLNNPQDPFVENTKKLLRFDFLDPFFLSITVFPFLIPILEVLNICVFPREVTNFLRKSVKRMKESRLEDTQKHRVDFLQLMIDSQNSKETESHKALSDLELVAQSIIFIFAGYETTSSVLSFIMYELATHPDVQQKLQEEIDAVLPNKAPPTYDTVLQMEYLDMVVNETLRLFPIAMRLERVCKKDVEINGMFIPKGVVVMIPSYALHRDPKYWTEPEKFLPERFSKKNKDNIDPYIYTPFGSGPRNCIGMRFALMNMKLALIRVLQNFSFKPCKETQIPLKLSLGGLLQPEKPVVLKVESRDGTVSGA
How it was run: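 Luminescent CYP3A4 activity readout: compounds plus enzyme-substrate mix 10 min at room temperature, reaction started with NADPH regenerating system for 1 h, stopped with detection reagent, read after 20 min. Ketoconazole served as control.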

[7] = NS1 protein of Zika virus - qHTS assay to identify small molecule inhibitors in human HEK 293 cells (AID 1347053)
How it was run: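 HEK 293; 20 h pre-culture, 37 C/5% CO2; cpd 1 h pre-infection; ZIKV MR766, MOI = 0.5, 24 h, 37 C; TR-FRET NS1 readout (two anti-NS1 Abs); norm. to no-virus vs infected.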

[8] = qHTS of pediatric cancer cell lines to identify multiple opportunities for drug repurposing: Primary screen for SJ-GBM2 cells (AID 1347091);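 also: plate controls were DMSO neutral control for no effect and bortezomib for full effect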
How it was run: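 Cell viability, CellTiter-Glo luminescence; 500-1,000 cells/well, 8- or 11-point titration, 48 h compound exposure at 37 degrees C, 5% CO2. Controls: DMSO neutral, bortezomib 2.3 µM final as positive.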

[9] = qHTS of pediatric cancer cell lines to identify multiple opportunities for drug repurposing: Primary screen for BT-37 cells (AID 1347094);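 also: plate controls were DMSO for no effect and bortezomib for full effect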
How it was run: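 Primary screen of approved and investigational compounds on cells in growth media at 37 degrees C, 5% CO2. MIPE set at 11-point and NPC set at 8-point dilutions; viability scored by ATP-based luminescence at 48 hours.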

[10] = qHTS of pediatric cancer cell lines to identify multiple opportunities for drug repurposing: Primary screen for BT-12 cells (AID 1347101);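 also: plate controls were DMSO for no effect and bortezomib positive control for full effect; nearly all actives have a fitted effect of over 25% in size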
How it was run: (§2)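 Cells (500-1,000/well) rested 5 h, then received compounds for 48 h; metabolically active cells were measured by CellTiter-Glo luminescence. Final concentrations spanned up to 46 µM (MIPE, 11-point) or 0.59 nM-46 µM (NPC, 8-point) in primary screens, 11-point in follow-ups.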

[11] = qHTS of pediatric cancer cell lines to identify multiple opportunities for drug repurposing: Primary screen for OHS-50 cells (AID 1347103); details: OHS-50 osteosarcoma viability, CellTiter-Glo luminescence, 48 h; activity change, negative = cytotoxic: at 57.3 µM (top of the series);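 also: plate controls were DMSO neutral control for no effect and bortezomib positive control for full effect; nearly all actives have a fitted effect of over 40% in size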
How it was run: as §2

[12] = Primary qHTS for small molecule stabilizers of the endoplasmic reticulum resident proteome: Secreted ER Calcium Modulated Protein (SERCaMP) assay (AID 1508630); details: SH-SY5Y GLuc-SERCaMP (Gaussia luciferase released on ER calcium loss) secretion, thapsigargin, luminescence; activity change, negative = inhibition: at 38.4 µM (top of the series) unless noted; also: potency is read from the fitted curve at half-maximal effect
How it was run: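 GLuc-SERCaMP-expressing SH-SY5Y cells, pretreated 16 h with compound, are challenged with thapsigargin to empty ER calcium stores; after 4 h, coelenterazine is added directly to the medium and luminescence is imaged.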

[13] = molecular target: Cytochrome P450 2C9 (Homo sapiens) (UniProt P11712); assay: Cytochrome P450 family 2 subfamily C member 9 (CYP2C9) small molecule antagonists: luciferase biochemical (cell-free) qHTS assay (AID 1645842; active = well fitted curve in the direction sought with a large enough effect in the repeat runs; inconclusive = weak or mixed curves; inactive = no such curve, though single readings can be large; an effect the other way counts as inactive or inconclusive)
UniProt P11712, sequence (P11712 whole entry, looked up): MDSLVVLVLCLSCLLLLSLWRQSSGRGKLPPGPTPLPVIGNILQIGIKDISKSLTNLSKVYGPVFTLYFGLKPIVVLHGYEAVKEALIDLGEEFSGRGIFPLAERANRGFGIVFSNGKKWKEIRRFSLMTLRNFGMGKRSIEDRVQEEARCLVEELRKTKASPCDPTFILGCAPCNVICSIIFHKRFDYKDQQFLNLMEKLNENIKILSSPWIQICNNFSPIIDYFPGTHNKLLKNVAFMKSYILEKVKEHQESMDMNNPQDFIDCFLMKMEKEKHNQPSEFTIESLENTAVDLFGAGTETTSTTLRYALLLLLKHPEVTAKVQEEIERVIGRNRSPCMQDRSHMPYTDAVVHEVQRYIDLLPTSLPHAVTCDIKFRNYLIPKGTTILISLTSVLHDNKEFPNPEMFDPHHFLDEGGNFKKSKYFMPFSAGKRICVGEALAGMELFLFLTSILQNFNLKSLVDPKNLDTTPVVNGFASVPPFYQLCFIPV
How it was run: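 Luminescence, after 20 min with luciferin detection reagent, reflected CYP2C9 turnover during a 1 h NADPH-driven reaction at 37C. Enzyme-substrate mix contained 0.4% bovine serum albumin and was preincubated with compound 10 min at room temperature.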

[14] = Primary qHTS for inhibitors of nuclear receptor binding SET domain protein 2 (NSD2) in an isogenic RCH-ACV NSD2 p.E1099K mutant (9B) (AID 1645876); details: activity change, negative = viability loss: at 44.9 µM (top of the series) unless noted; also: nearly all actives have a fitted effect of over 70% in size
PA-1 = assay: Primary qHTS to identify gynecologic anti-cancer compounds using libraries of approved drugs and bioactive compounds (AID 1345084); details: Gynecologic cancer cell panel viability, ATPlite luminescence, 48 h; series mostly up to 57.5 µM; also: nearly all actives have a fitted effect of over 55% in size; also: potency is read from the fitted curve at half-maximal effect; as to activity change, negative = cytotoxicity: % is scaled to controls: 0 for no effect and ±100 for the full control effect
How it was run: as §1

Tov-21-G = assay: as above; details: Gynecologic cancer cell panel viability, ATPlite luminescence, 48 h; series mostly up to 57.5 µM
How it was run: as §1

Tov112D = assay: as above; details: Gynecologic cancer cell panel viability, ATPlite luminescence, 48 h; series mostly up to 57.5 µM
How it was run: as §1

[15] = test system: Zika virus NS2B-NS3 protease (unlinked complex); assay: Primary screen GU Rhodamine qHTS for Zika virus inhibitors: Unlinked NS2B-NS3 protease assay (AID 1347159); details: Recombinant ZIKV NS2B-NS3 protease, Rhodamine110 substrate fluorescence; activity change, negative = inhibition: at 107 µM (top of the series); also: nearly all actives have a fitted effect of over 60% in size; also: potency is read from the fitted curve at half-maximal effect
How it was run: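 Compounds, tested up to 114 microM, were incubated for 15 minutes with 25 nM unlinked NS2B-NS3 protease at pH 8.0. Cleavage of 1.5 microM Rhodamine110 substrate was then followed by fluorescence for 15 minutes.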

[16] = test system: Zika virus NS2B-NS3 protease (linked construct); assay: Primary screen NINDS Rhodamine qHTS for Zika virus inhibitors (AID 1347160)
How it was run: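 Percent inhibition, normalized to uninhibited and enzyme-free controls, is fitted to a 4-parameter Hill equation. Fluorescence change comes from a 15-min cleavage of 1.5 microM bis-peptide Rhodamine110 substrate by 25 nM linked NS2B-NS3 at room temperature.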

SKOV3 = assay: Primary qHTS to identify gynecologic anti-cancer compounds using libraries of approved drugs and bioactive compounds (AID 1345084); details: Gynecologic cancer cell panel viability, ATPlite luminescence, 48 h; series mostly up to 57.5 µM; also: nearly all actives have a fitted effect of over 55% in size; also: potency is read from the fitted curve at half-maximal effect
How it was run: as §1
Tags tell the direction and shape of the fitted curve.

COc1cc2c(cc1O)[C@H](c1ccc(O[C@@H]3O[C@H](CO)[C@@H](O)[C@H](O)[C@H]3O)c(OC)c1)[C@@H](CO)[C@](O)(CO)C2
inactive: Potency [1] | Potency [2] | Potency (CAOV3) | Potency (Hek293T)

C[C@H]1CC[C@@]2(OC1)O[C@H]1CC3C4CC[C@H]5C[C@@H](O[C@@H]6O[C@H](CO)[C@H](O[C@@H]7O[C@H](CO)[C@@H](O)[C@H](O[C@@H]8OC[C@@H](O)[C@H](O)[C@H]8O)[C@H]7O[C@@H]7O[C@H](CO)[C@@H](O)[C@H](O)[C@H]7O)[C@H](O)[C@H]6O)[C@H](O)C[C@]5(C)C4=CC(=O)[C@]3(C)[C@H]1[C@@H]2C (some centres undefined)
inconclusive: Potency [2] 4.88 µM [inhibitor, single point]
inactive: outcome [3] inactive [at 9.29 µM] | activity change, negative = cytotoxicity (CAOV3) 5.57% [at 11.6 µM] | activity change, negative = cytotoxicity (OV90) -5.92% [at 11.6 µM]

COc1ccc(-n2c(=O)[nH]c3cc(C(=O)NCc4ccc(Cl)cc4)sc3c2=O)nc1OC
inconclusive: Potency [5] 30.1 µM [inhibitor, single point] | Potency [6] 37.9 µM [falling, single point]
inactive: Potency [4] | Potency [2] | Potency (CAOV3) | Potency (Hek293T)

CNC(=O)c1c(I)c(NC(C)=O)c(I)c(C(=O)O)c1I
inconclusive: Potency [12] 25.1 µM [inhibitor, partial curve, poor fit]
inactive: Potency [7] | Potency [8] | Potency [9] | Potency [10] | Potency [11] | Potency [13] | Potency [14] | Potency (CAOV3) | Potency (PA-1) | Potency (Tov-21-G) | Potency (Tov112D)

C[C@@H]1CC[C@]2(C(=O)O)CC[C@]3(C)C(=CCC4[C@@]5(C)C[C@@H](O)[C@@H](O)C(C)(C)C5CC[C@]43C)C2[C@]1(C)O (some centres undefined)
inactive: Potency (CAOV3)
inconclusive: Potency [15] 35.5 µM [inhibitor, partial curve] | Potency [16] 10 µM [inhibitor, partial curve, poor fit] | Potency (PA-1) 2.51 µM [rising, single point] | Potency (SKOV3) 0.501 µM [rising, full curve, poor fit]

C=C1CCc2occ(C)c2[C@H]2[C@H]1[C@@]13O[C@@]1(C[C@@H](C)[C@H]3OC(C)=O)[C@H]1O[C@@]21C
inconclusive: Potency (OV90) 1 µM [rising, partial curve, poor fit]
inactive: Potency [4] | Potency [2] | Potency (CAOV3)

COc1ccc(/C=C/C(=O)O[C@@H]2[C@@H](O)[C@H](C)O[C@@H](OC3C4C=COC(O[C@@H]5O[C@H](CO)[C@@H](O)[C@H](O)[C@H]5O)C4C4(CO)OC34)[C@@H]2O)cc1OC (some centres undefined)
inconclusive: Potency (CAOV3) 12.6 µM [rising, single point]
inactive: Potency [15] | Potency [2] | Potency (OV90)
